Laboratory results published in PubChem BioAssay AID1963576 (National Center for Advancing Translational Sciences (NCATS), 2024).
Screen size: about 46,000 compounds; about 60 (0.1%) were called active. Roughly 3% stayed inconclusive and do not appear here. The call rests on the fitted dose curve; in most records, active means well fitted inhibition curve with a large enough effect; inconclusive means small, poorly fitted or top-dose-only effect; inactive means no such curve, though single readings can be large or run the other way. This is one part of the list.

experiment: Primary qHTS assay for Inhibitors of ovarian cancer metastasis using an organotypic tumor microenvironment (TME) model.; further: nearly all actives have a fitted effect of over 65% in size;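 on activity change, negative = inhibition: plate controls were DMSO wells for no effect and tomatine positive control wells for full effect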; conditions: SKOV3ip1-GFP adhesion/invasion on 3D omental model, fluorescence; series mostly up to 45.8 µM; activity change, negative = inhibition: at the top concentration
Summary of the method: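 Adhesion/invasion was scored as fixed GFP-labeled SKOV3ip1 cell counts (488/509 nm), normalized to DMSO and tomatine controls. Cancer cells in serum-free medium, with four compound doses (0.36-46 umol/L), sat 2 hr at RT then 16 hr at 37 C on a 48 hr fibroblast/mesothelial/ECM culture.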

Activity change, negative = inhibition, inactive:
Cc1ccc(Cl)cc1N(C)C(=O)c1cnc(N2CCOCC2)c2ccccc12 -1.82%, CCc1cccc(NC(=O)CN2CCCN(Cc3cccc(C)c3)S2(=O)=O)c1 3.64%, COc1ccc(NC(=O)N2CCc3c([nH]c4ccc(OC)cc34)C2c2ccc(OC)cc2)cc1 (configuration not stated) -11.5%, COc1ccc2nc(N3CCN(C(=O)C4CC4)CC3)sc2c1 -0.0512%, CC(NC(=O)c1sc2ncccc2c1-n1cccc1)c1ccccc1 (configuration not stated) -19.8%, COc1cccc(-c2nc3c(C#N)c[nH]n3c2NC2CCCCC2)c1OC -12.6%, COc1cc(Nc2c(C#N)cnc3cc(OCCCN4CCN(C)CC4)c(OC)cc23)c(Cl)cc1Cl 7.29%, Cc1ccc(Cn2c(=O)n(CC3CCC(C(=O)N4CCOCC4)CC3)c(=O)c3sccc32)cc1 (configuration not stated) -8.52%, O=C(NCC(c1cccnc1)N1CCN(Cc2ccccc2)CC1)C(=O)Nc1cccc(F)c1 (configuration not stated) -3.56%, CCOC(=O)CC(NC(=O)Cn1nnc(-c2ccc(C(F)(F)F)cc2)n1)c1ccc(C)cc1 (configuration not stated) -2.91%, O=C(CC1Oc2ccc(Cl)cc2NC1=O)NCc1ccccc1 (configuration not stated) -7.3%, Cc1ccc(S(=O)(=O)N2CCCc3cc(NC(=O)c4ccccc4Cl)ccc32)cc1 -6.75%, COc1ccc(CCNC(=O)CCCCCn2c(SCC(N)=O)nc3cc4c(cc3c2=O)OCO4)cc1OC -8.44%, Cc1ccc(C)c(N(C)C(=O)C2CCN(c3ncnc4c3nc3n4CCCCC3)CC2)c1 6.74%, CCN(CC)S(=O)(=O)c1nnc(NC(=O)COc2cccc(C)c2)s1 -3.9%, O=C(Nc1c(C(=O)c2ccc(F)cc2)oc2ccccc12)c1cc(-c2ccccc2)on1 -4.08%, COc1ccc(NC(=O)N(Cc2nnc3n2CCCCC3)c2ccc(OC)c(Cl)c2)cc1 10%, CCc1ccc(S(=O)(=O)c2c(C(=O)c3ccc(C)c(C)c3)cnc3ccccc23)cc1 -0.492%, CCOc1ccc(CNC(=O)c2ccc3nc(CC)c(CC)nc3c2)cc1OC -27.5%, CCn1c(=O)cc(OCC(=O)Nc2cc(OC)c(OC)c(OC)c2)c2ccccc21 -4.62%, CN(C)c1ccc(CNC(=O)c2ccc(NC(=O)c3nsc4ccccc34)cc2)cc1 1.95%, CCC12CN3CC(C)(CN(C1)C3c1c(C)n(C)c3ccccc13)C2=O (configuration not stated) -5.11%, CC(C)C1N=C2c3ccccc3N=C(SCC(=O)NCc3ccc(F)cc3)N2C1=O (configuration not stated) 4.94%, Cc1cccc(NC(=O)Cn2c(=O)n(CCc3ccccc3)c(=O)c3sc4ccccc4c32)c1 3.09%, CCC1(c2ccccc2)C(=O)NCNC1=O 2.48%, Cc1ccc(Nc2cc(-c3cccc(N4C(=O)c5ccccc5C4=O)c3)ncn2)cc1NS(C)(=O)=O -12%, Cc1cccc(CNC(=O)c2ccc3nc(-c4ccccc4)c(-c4ccccc4)nc3c2)c1 -2.99%, Cc1c(C(=O)NCc2ccccc2Cl)cccc1-n1cnc2cccnc21 19.2%, Cc1cccc(C)c1OCc1nc2c3cnn(-c4ccccc4Br)c3ncn2n1 -7.62%, COc1cc(NC(=O)c2cc(C3CC3)nc3c2c(C)nn3-c2ccc(C)cc2)cc(OC)c1 -16%, Nc1c(-c2nc(-c3ccc(Cl)cc3)no2)nnn1-c1ccc(C(F)(F)F)c(Cl)c1 8.69%, CCOC(=O)Cn1c(=O)n(C2CCCCC2)c2nc(-c3ccccc3Cl)nc(C(N)=O)c21 -3.35%, O=C(CSc1nc2c([nH]c3ccccc32)c(=O)n1-c1ccc(F)cc1)N1CCCc2ccccc21 -7.05%, CCC(CC)C(=O)Nc1nnc2n1CCS2 10.4%, COc1ccc(-c2c(C)nn3c(-c4ccccc4)cc(-c4ccccc4)nc23)cc1OC -0.725%, COc1ccc(CCN2C(=O)c3[nH]nc(-c4ccccc4O)c3C2c2ccc(O)c(OC)c2)cc1 (configuration not stated) 2.58%, CCOC(=O)CC(NC(=O)c1cc2c(=O)n3cccc(C)c3nc2s1)c1ccc(OCC(C)C)c(OC)c1 (configuration not stated) 2.44%, COc1ccc2c(c1)c1c(c(=O)n(-c3ccc(F)c(Cl)c3)c(=O)n1Cc1ccccc1F)n2C -4.44%, COC(=O)c1c(-c2ccc(Cl)cc2)noc1N1CCN(c2ccccc2F)CC1 3.03%, CCOC(=O)C1=C(CN(CC)Cc2ccccc2)NC(=O)NC1c1ccc(OC)cc1 (configuration not stated) 10%, O=C1CN(C(=O)c2cccc(Br)c2)C(c2ccccc2)c2cc(Cl)ccc2N1 (configuration not stated) -11%, N#Cc1c(-n2ncnc2-c2cccc(Cl)c2)sc2c1CCCCC2 -6.93%, COc1ccccc1NC(=O)C(=O)c1cc(C)n(-c2cc(C)cc(C)c2)c1C -13.7%, O=C(CNS(=O)(=O)c1ccc(Br)s1)N1CCN(c2ccc(F)cc2)CC1 -9.94%, COc1ccc(Cl)cc1NC(=O)C(=O)NCc1ccc(Cl)cc1 1.56%, CC(C)(C)c1ccc(C(=O)NC2=NC(c3cccc(F)c3)CC(=O)N2)cc1 (configuration not stated) 2.02%, Cc1cc(C)c2oc(C(=O)NCCc3ccc(S(N)(=O)=O)cc3)cc(=O)c2c1 -3.06%

outcome, inactive:
COc1ccc(N2CCN(C(=O)c3ccc4nc(N5CCC(C)CC5)sc4c3)CC2)cc1, COC(=O)c1cc2oc3ccccc3c2n1Cc1c(F)cccc1Cl, CCN(CC)S(=O)(=O)c1ccc2c(c1)N(CC(=O)Nc1ccc(F)cc1)C(=O)CO2, Cn1cnc(S(=O)(=O)N2CCCC(C(=O)Nc3cccc(C#N)c3)C2)c1 (configuration not stated), COc1cccc(N2CCN(c3ccc4nnc(CCC(=O)O)n4n3)CC2)c1, COCCNC(=O)CSc1nc2ccccc2nc1Cc1ccc(C)cc1, COc1cccc(Cc2nc3ccccc3nc2SCC(=O)Nc2ccccc2F)c1, O=C(Cn1c(=O)n(-c2ccccc2)c(=O)c2c3c(sc21)CCCC3)Nc1cccc(F)c1, COC(=O)c1ccc(NC(=O)CCNS(=O)(=O)c2cccc3nsnc23)cc1, O=C(NC1CCCCC1)c1cc(Nc2ccccc2)nc2ccccc12, CCCCNC(=O)c1ccc2c(c1)NC(=O)C(C(C)C)N2 (configuration not stated), CCOc1cccc(-c2nc3ccccc3c(=O)o2)c1, COCCNS(=O)(=O)c1cc(-c2nn3c(C)nnc3c3ccccc23)ccc1C, Cc1ccc(NC(=O)N2CCN(C(=O)c3nsc4ccccc34)CC2)cc1C, CCS(=O)(=O)NCCc1sc2nc(-c3ccc(OC)cc3)nn2c1C
